The other results are listed elsewhere or left out. At the low end of the ranking, values are background and their order means little.

The target in the experiment is GST-SBP-SLBP (stem-loop binding protein) (UniProt Q14493). The experiment in a line: targeted RNA Bind-n-Seq.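 Note: DESeq read counts versus GST-SBP nonspecific binding control pulldown.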 The settings on record: RBNS binding buffer: 25 mM Tris pH 7.5, 150 mM KCl, 3 mM MgCl2, 0.1% Tween, 0.5 mg/mL BSA, 1 mM DTT; 27 nM protein, 750 pM RNA pool; temperature not stated; high values mean tight binding.
As to “GGUCACGUCUCAAUCAACUCUUCGUCCAGGGAAAGCCCUGGUUAAUUCAACAGCUCGCAGUCAAG”, the binding signal (log2 fold change) was -0.228.
In the case of “GGUCACGUCUCAAUCAACUCAUUCGAGGGGGGGAAAACCCCUUUACCCUCACUUUCAACAGCUCGCAGUCAAG”, the binding signal (log2 fold change) is -0.036.
Consider “GGUCACGUCUCAAUCAACUCUACUUCAGGAGUUUCCUCCUGCAUAUUCAACAGCUCGCAGUCAAG”, for which the binding signal (log2 fold change) came to 0.166.
As to “GGUCACGUCUCAAUCAACUCAGUCCCAGGAGUUUUCUCCUGCUAUUUCAACAGCUCGCAGUCAAG”, the binding signal (log2 fold change) was -0.147.
The figure for “GGUCACGUCUCAAUCAACUCUAUUCCCAGGGAAAUCCCUGGUAUAUUCAACAGCUCGCAGUCAAG” is 0.0695; for “GGUCACGUCUCAAUCAACUCAGAAGAGGGGGGGAAAACCCCUUUACCCUCCAUAUCAACAGCUCGCAGUCAAG” it is 0.0423; for “GGUCACGUCUCAAUCAACUCAUUCCCAGGAGUUUACUCCUGUAGUCUCAACAGCUCGCAGUCAAG” it is 0.0578.
For the sequence “GGUCACGUCUCAAUCAACUCUUCUUCCAGGGAAAUCCCUGGCAUUCUCAACAGCUCGCAGUCAAG”, the binding signal (log2 fold change) was found to be 0.266.
Then “GGUCACGUCUCAAUCAACUCAUGUCCAGGAGUUUCCUCCUGCAAAUUCAACAGCUCGCAGUCAAG”, with 0.148; and “GGUCACGUCUCAAUCAACUCUAUCCCCAGGGAAAGCCCUGGUAAUUUCAACAGCUCGCAGUCAAG”, with -0.269; and “GGUCACGUCUCAAUCAACUCUAUGUCCAGGGAAAUCCCUGGUUUUUUCAACAGCUCGCAGUCAAG”, with -0.118.
The figure for “GGUCACGUCUCAAUCAACUCUUCCUCCAGGGAAACCCCUGGCAUUCUCAACAGCUCGCAGUCAAG” is -0.0647; for “GGUCACGUCUCAAUCAACUCCAAAGAGGGGGGGAAAACCCCUUUACCCUCCAUUUCAACAGCUCGCAGUCAAG” it is -0.218; for “GGUCACGUCUCAAUCAACUCAAUCUCCAGGGAAACCCCUGGUAAUCUCAACAGCUCGCAGUCAAG” it is -0.234.
For “GGUCACGUCUCAAUCAACUCUUCCCCCAGGGAAAACCCUGGUAAUUUCAACAGCUCGCAGUCAAG”, the binding signal (log2 fold change) stood at 0.239.
For “GGUCACGUCUCAAUCAACUCAAUCGAGGGGGGGAAAACCCCUUUACCCUCAUCAUCAACAGCUCGCAGUCAAG”, the binding signal (log2 fold change) was -0.0571.
The figure for “GGUCACGUCUCAAUCAACUCAAUCCCAGGAGUUUUCUCCUGCAAAGUCAACAGCUCGCAGUCAAG” is 0.0314.
For the sequence “GGUCACGUCUCAAUCAACUCAUCCCCCAGGGAAAGCCCUGGUAAACUCAACAGCUCGCAGUCAAG”, the binding signal (log2 fold change) came out at 0.0629.
Then “GGUCACGUCUCAAUCAACUCAUCUUCCAGGGAAAACCCUGGUAAACUCAACAGCUCGCAGUCAAG”, with 0.272.
With “GGUCACGUCUCAAUCAACUCAACUUCCAGGGAAAGCCCUGGUAUAUUCAACAGCUCGCAGUCAAG”, the binding signal (log2 fold change) is -0.328.
The figure for “GGUCACGUCUCAAUCAACUCAUUCUCAGGAGUUUCCUCCUGUUUAGUCAACAGCUCGCAGUCAAG” is 0.208; for “GGUCACGUCUCAAUCAACUCUUUAGAGGGGGGGAAAACCCCUUUGCCCUCACUUUCAACAGCUCGCAGUCAAG” it is 0.0444; for “GGUCACGUCUCAAUCAACUCAUUCUCAGGAGUUUACUCCUGCAAAGUCAACAGCUCGCAGUCAAG” it is 0.0362.
The figure for “GGUCACGUCUCAAUCAACUCAACUUCCAGGGAAAUCCCUGGCAUUCUCAACAGCUCGCAGUCAAG” is 0.0857; for “GGUCACGUCUCAAUCAACUCAUUCUCAGGAGUUUCCUCCUGCUAACUCAACAGCUCGCAGUCAAG” it is 0.0533.
For the sequence “GGUCACGUCUCAAUCAACUCUUUUUCCAGGGAAACCCCUGGCAAUGUCAACAGCUCGCAGUCAAG”, the binding signal (log2 fold change) was -0.315.
Then “GGUCACGUCUCAAUCAACUCAUCUCCAGGAGUUUACUCCUGUAUUCUCAACAGCUCGCAGUCAAG”, with 0.0462; and “GGUCACGUCUCAAUCAACUCAUCGUCAGGAGUUUACUCCUGCAUAUUCAACAGCUCGCAGUCAAG”, with -0.0415.
Regarding “GGUCACGUCUCAAUCAACUCAAUCGCAGGAGUUUUCUCCUGGUAAUUCAACAGCUCGCAGUCAAG”, the binding signal (log2 fold change) was 0.0664.
The figure for “GGUCACGUCUCAAUCAACUCUUUCUCCAGGGAAAACCCUGGCUUAUUCAACAGCUCGCAGUCAAG” is 0.0307; for “GGUCACGUCUCAAUCAACUCAUCUCCAGGAGUUUUCUCCUGCUUAGUCAACAGCUCGCAGUCAAG” it is 0.0239.
Turning to “GGUCACGUCUCAAUCAACUCUCCAGAGGGGGGGAAAACCCCUUUGCCCUCAAUAUCAACAGCUCGCAGUCAAG”, the binding signal (log2 fold change) was -0.0693.
Then “GGUCACGUCUCAAUCAACUCAUCUUCAGGAGUUUUCUCCUGUAUACUCAACAGCUCGCAGUCAAG”, with 0.0783; and “GGUCACGUCUCAAUCAACUCAUCUCCCAGGGAAAUCCCUGGUAUAUUCAACAGCUCGCAGUCAAG”, with 0.0532; and “GGUCACGUCUCAAUCAACUCUUUUUCCAGGGAAAUCCCUGGCAAUGUCAACAGCUCGCAGUCAAG”, with 0.132.
On to “GGUCACGUCUCAAUCAACUCAUCUCCCAGGGAAAUCCCUGGUAUUUUCAACAGCUCGCAGUCAAG”, for which the binding signal (log2 fold change) was determined as 0.0548.
Then “GGUCACGUCUCAAUCAACUCAUCCCCCAGGGAAAGCCCUGGUUUUCUCAACAGCUCGCAGUCAAG”, with 0.259; and “GGUCACGUCUCAAUCAACUCCCAAGAGGGGGGGAAAACCCCUUUACCCUCACAAUCAACAGCUCGCAGUCAAG”, with -0.072.
Then “GGUCACGUCUCAAUCAACUCAACUCCCAGGGAAAGCCCUGGUAAAUUCAACAGCUCGCAGUCAAG”, with -0.276; and “GGUCACGUCUCAAUCAACUCUAUGUCAGGAGUUUUCUCCUGCUAAUUCAACAGCUCGCAGUCAAG”, with -0.151.
Then “GGUCACGUCUCAAUCAACUCAAGUCCAGGAGUUUUCUCCUGUUAAUUCAACAGCUCGCAGUCAAG”, with 0.225; and “GGUCACGUCUCAAUCAACUCAUCCCCCAGGGAAAGCCCUGGCUAACUCAACAGCUCGCAGUCAAG”, with -0.0483; and “GGUCACGUCUCAAUCAACUCAUCCGCAGGAGUUUCCUCCUGGUAAUUCAACAGCUCGCAGUCAAG”, with 0.119.
For “GGUCACGUCUCAAUCAACUCAAUUUCCAGGGAAAGCCCUGGCGUAUUCAACAGCUCGCAGUCAAG”, the binding signal (log2 fold change) is -0.0156.
Then “GGUCACGUCUCAAUCAACUCAUCCUCAGGAGUUUUCUCCUGCUUUUUCAACAGCUCGCAGUCAAG”, with 0.184; and “GGUCACGUCUCAAUCAACUCAUCUUCAGGAGUUUCCUCCUGCUAUUUCAACAGCUCGCAGUCAAG”, with 0.0308.
As to “GGUCACGUCUCAAUCAACUCUACUCCCAGGGAAAGCCCUGGCUAUCUCAACAGCUCGCAGUCAAG”, the binding signal (log2 fold change) stood at 0.0534.
The figure for “GGUCACGUCUCAAUCAACUCAGUCCCAGGAGUUUCCUCCUGCUAAUUCAACAGCUCGCAGUCAAG” is -0.075.
On to “GGUCACGUCUCAAUCAACUCUUCAGAGGGGGGGAAAACCCCUUUACCCUCCAUGUCAACAGCUCGCAGUCAAG”, for which the binding signal (log2 fold change) is -0.0562.
Then “GGUCACGUCUCAAUCAACUCUACUUCAGGAGUUUCCUCCUGUUAUCUCAACAGCUCGCAGUCAAG”, with -0.169; and “GGUCACGUCUCAAUCAACUCAACUCCAGGAGUUUUCUCCUGCAUUCUCAACAGCUCGCAGUCAAG”, with -0.055.
Then “GGUCACGUCUCAAUCAACUCUCUCGAGGGGGGGAAAACCCCUUUACCCUCACACUCAACAGCUCGCAGUCAAG”, with -0.086; and “GGUCACGUCUCAAUCAACUCAUCUUCAGGAGUUUUCUCCUGUUAUCUCAACAGCUCGCAGUCAAG”, with 0.171; and “GGUCACGUCUCAAUCAACUCCUUAGAGGGGGGGAAAACCCCUUUGCCCUCAUAAUCAACAGCUCGCAGUCAAG”, with -0.111.
As for “GGUCACGUCUCAAUCAACUCAUCUCCAGGAGUUUUCUCCUGUUAAUUCAACAGCUCGCAGUCAAG”, the binding signal (log2 fold change) was determined as 0.0642.
The figure for “GGUCACGUCUCAAUCAACUCUCAAGAGGGGGGGAAAACCCCUUUACCCUCGCCAUCAACAGCUCGCAGUCAAG” is -0.025; for “GGUCACGUCUCAAUCAACUCAUCCUCAGGAGUUUCCUCCUGCUUAGUCAACAGCUCGCAGUCAAG” it is 0.23; for “GGUCACGUCUCAAUCAACUCUCUCGAGGGGGGGAAAACCCCUUUACCCUCAUACUCAACAGCUCGCAGUCAAG” it is 0.145.
“GGUCACGUCUCAAUCAACUCAUAAGAGGGGGGGAAAACCCCUUUGCCCUCGAAAUCAACAGCUCGCAGUCAAG”: the binding signal (log2 fold change) was determined as 0.269.
Take “GGUCACGUCUCAAUCAACUCUUUCUCCAGGGAAAGCCCUGGUAUACUCAACAGCUCGCAGUCAAG”: the binding signal (log2 fold change) was 0.171.
The figure for “GGUCACGUCUCAAUCAACUCUACUCCCAGGGAAAUCCCUGGCAAACUCAACAGCUCGCAGUCAAG” is -0.00265; for “GGUCACGUCUCAAUCAACUCACAAGAGGGGGGGAAAACCCCUUUACCCUCCACAUCAACAGCUCGCAGUCAAG” it is -0.45.
The figure for “GGUCACGUCUCAAUCAACUCAUACGAGGGGGGGAAAACCCCUUUGCCCUCACAUUCAACAGCUCGCAGUCAAG” is -0.0683.
“GGUCACGUCUCAAUCAACUCUUCCCCAGGAGUUUCCUCCUGCUUAUUCAACAGCUCGCAGUCAAG”: the binding signal (log2 fold change) is 0.115.
As to “GGUCACGUCUCAAUCAACUCAUUAGAGGGGGGGAAAACCCCUUUACCCUCCGCAUCAACAGCUCGCAGUCAAG”, the binding signal (log2 fold change) was -0.0861.
On to “GGUCACGUCUCAAUCAACUCACUAGAGGGGGGGAAAACCCCUUUGCCCUCAUCUUCAACAGCUCGCAGUCAAG”, for which the binding signal (log2 fold change) is -0.84.
Turning to “GGUCACGUCUCAAUCAACUCUUUCGAGGGGGGGAAAACCCCUUUACCCUCAUUCUCAACAGCUCGCAGUCAAG”, the binding signal (log2 fold change) is -0.273.
As to “GGUCACGUCUCAAUCAACUCCUCCGAGGGGGGGAAAACCCCUUUACCCUCACUAUCAACAGCUCGCAGUCAAG”, the binding signal (log2 fold change) is -0.417.
“GGUCACGUCUCAAUCAACUCCAUAGAGGGGGGGAAAACCCCUUUGCCCUCACAAUCAACAGCUCGCAGUCAAG”: the binding signal (log2 fold change) is 0.107.
Then “GGUCACGUCUCAAUCAACUCUCAAGAGGGGGGGAAAACCCCUUUGCCCUCGUUAUCAACAGCUCGCAGUCAAG”, with -0.253; and “GGUCACGUCUCAAUCAACUCAUUUUCAGGAGUUUCCUCCUGUUAUCUCAACAGCUCGCAGUCAAG”, with 0.0757.
The figure for “GGUCACGUCUCAAUCAACUCUUUCUCAGGAGUUUUCUCCUGUUUACUCAACAGCUCGCAGUCAAG” is 0.133; for “GGUCACGUCUCAAUCAACUCUUCGUCCAGGGAAACCCCUGGCAUAUUCAACAGCUCGCAGUCAAG” it is -0.151; for “GGUCACGUCUCAAUCAACUCACUAGAGGGGGGGAAAACCCCUUUACCCUCACUUUCAACAGCUCGCAGUCAAG” it is 0.242.
